According to publication PMC9834408, “The SPOC domain is a phosphoserine binding module that bridges transcription machinery with co- and post-transcriptional regulators” (Nature Communications, 2023):
Results are given in words; binding and its absence hold for the method and conditions named. Binding seen in cells or lysates may run through a third protein. Some entries that bind do so weakly or less than the wild type. For part of these data: Tags and fused reporters may be left off the sequences shown.

Assays:
Test in all cases: co-IP; anti-FLAG M2 beads; 3×FLAG-tagged SPOC domains, full-length or ΔSPOC proteins expressed in HEK293T; lysis in 50 mM Tris-Cl pH 8, 150 mM NaCl, 0.1% Triton with benzonase; elution with 3×FLAG peptide; western blot; performed once
[1] = target: 3×FLAG-SHARP (human), Q96T58; details: remark: other sources report otherwise
[2] = target: 3×FLAG-NLS-RBM15-SPOC (human) (UniProt Q96T37)
[3] = target: 3×FLAG-RBM15 (human) (UniProt Q96T37)

binding [1] | binding [2] | binding [3] | Binder
no binding | – | – | WTAP, Q15007 1-396 (protein) MTNEEPLPKKVRLSETDFKVMARDELILRWKQYEAYVQALEGKYTDLNSNDVTGLRESEEKLKQQQQESARRENILVMRLATKEQEMQECTTQIQYLKQVQQPSVAQLRSTMVDPAINLFFLKMKGELEQTKDKLEQAQNELSAWKFTPDSQTGKKLMAKCRMLIQENQELGRQLSQGRIAQLEAELALQKKYSEELKSSQDELNDFIIQLDEEVEGMQSTILVLQQQLKETRQQLAQYQQQQSQASAPSTSRTTASEPVEQSEATSKDCSRLTNGPSNGSSSRQRTSGSGFHREGNTTEDDFPSSPGNGNKSSNSSEERTGRGGSGYVNQLSAGYESVDSPTGSENSLTHQSNDTDSSHDPQEEKAVSGKGNRTVGSRHVQNGLDSSVNVQGSVL
– | binds | binds | HTATSF1 (TAT-SF1) (protein, UniProt O43719 1-755) MSGTNLDGNDEFDEQLRMQELYGDGKDGDTQTDAGGEPDSLGQQPTDTPYEWDLDKKAWFPKITEDFIATYQANYGFSNDGASSSTANVEDVHARTAEEPPQEKAPEPTDARKKGEKRKAESGWFHVEEDRNTNVYVSGLPPDITVDEFIQLMSKFGIIMRDPQTEEFKVKLYKDNQGNLKGDGLCCYLKRESVELALKLLDEDEIRGYKLHVEVAKFQLKGEYDASKKKKKCKDYKKKLSMQQKQLDWRPERRAGPSRMRHERVVIIKNMFHPMDFEDDPLVLNEIREDLRVECSKFGQIRKLLLFDRHPDGVASVSFRDPEEADYCIQTLDGRWFGGRQITAQAWDGTTDYQVEETSREREERLRGWEAFLNAPEANRGLRRSDSVSASERAGPSRARHFSEHPSTSKMNAQETATGMAFEEPIDEKKFEKTEDGGEFEEGASENNAKESSPEKEAEEGCPEKESEEGCPKRGFEGSCSQKESEEGNPVRGSEEDSPKKESKKKTLKNDCEENGLAKESEDDLNKESEEEVGPTKESEEDDSEKESDEDCSEKQSEDGSEREFEENGLEKDLDEEGSEKELHENVLDKELEENDSENSEFEDDGSEKVLDEEGSEREFDEDSDEKEEEEDTYEKVFDDESDEKEDEEYADEKGLEAADKKAEEGDADEKLFEESDDKEDEDADGKEVEDADEKLFEDDDSNEKLFDEEEDSSEKLFDDSDERGTLGGFGSVEEGPLSTGSSFILSSDDDDDDI
